Whole data set: some 18,000 sequences, median “TetR repression strength (sort-seq, GFP reporter)” near 0.23, cut for the highest 2% near 0.68. The list shows a part of the results.
These sequences were tested against TetR (class B, Tn10) (UniProt P04483) (assay: TetR repression strength (sort-seq, GFP reporter) (relative to tetO2 = 1); higher = stronger repression). Details: E. coli.
Method in brief: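 Repression strength was calculated by subtracting the read-weighted mean bin from the top bin index plus one and dividing by the unaltered operator's value. The plasmid library was low-copy in E. coli SIG10-MAX, with eight randomized operator positions between a constitutive promoter and sfGFP and constitutive TetR. Cultures grew 5 h at 37 °C in LB containing 50 µg/mL chloramphenicol before 10^6 cells were sorted by FACS into 13 fluorescence bins, each sequenced on Illumina. Three independent transformations were averaged for members having ≥30 reads in all replicates and a CV ≤0.5.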

UniProt P04483, sequence (P04483 whole entry): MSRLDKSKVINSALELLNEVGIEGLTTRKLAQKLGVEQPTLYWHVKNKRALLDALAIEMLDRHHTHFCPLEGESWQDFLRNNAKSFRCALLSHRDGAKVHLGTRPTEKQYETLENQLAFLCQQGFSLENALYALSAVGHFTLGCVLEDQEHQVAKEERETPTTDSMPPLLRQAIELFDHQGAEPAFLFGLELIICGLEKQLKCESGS

Question: With TCCCACGCAGTCGTAGAGA as the sequence, how does the TetR repression strength read?
Answer: 0.336

Question: How did the TetR repression strength turn out when TCCCGGGTAGTGGCAGAGA was run?
Answer: 0.238

Question: Which TetR repression strength does the source give for TCCCATATAGTGTATGAGA here?
Answer: 0.136

Question: With TCCCGGGTAGTCGATGAGA as the sequence, how does the TetR repression strength read?
Answer: 0.22

Question: Which TetR repression strength does the source give for TCCCTTTCAGTTTCAGAGA here?
Answer: 0.206

Question: Which TetR repression strength does the source give for TCCCGCCAAGTTGATGAGA here?
Answer: 0.15

Question: TCCCTACGAGTGCGGGAGA was tested. Which TetR repression strength did it give?
Answer: 0.0755

Question: For TCCCGAATAGTATCAGAGA, which TetR repression strength is on record?
Answer: 0.207

Question: For TCCCCAGAAGTCGCTGAGA, which TetR repression strength is on record?
Answer: 0.192

Question: How did the TetR repression strength turn out when TCCCGGATAGTGTCAGAGA was run?
Answer: 0.0952

Question: For TCCCGGTCAGTAAGGGAGA, which TetR repression strength is on record?
Answer: 0.199

Question: With TCCCTTCTAGTTTTAGAGA as the sequence, how does the TetR repression strength read?
Answer: 0.512

Question: For TCCCTGAGAGTACCTGAGA, which TetR repression strength is on record?
Answer: 0.301

Question: For TCCCTTATAGTGTGGGAGA, which TetR repression strength is on record?
Answer: 0.0444

Question: TCCCGAGGAGTATAGGAGA was tested. Which TetR repression strength did it give?
Answer: 0.134

Question: Which TetR repression strength does the source give for TCCCACTTAGTGCGAGAGA here?
Answer: 0.0746

Question: How did the TetR repression strength turn out when TCCCGCAGAGTGATTGAGA was run?
Answer: 0.0754

Question: With TCCCCGAGAGTCCAAGAGA as the sequence, how does the TetR repression strength read?
Answer: 0.25

Question: With TCCCAATTAGTATTGGAGA as the sequence, how does the TetR repression strength read?
Answer: 0.321

Question: Which TetR repression strength does the source give for TCCCGTAAAGTGAACGAGA here?
Answer: 0.109

Question: With TCCCTATTAGTGGGCGAGA as the sequence, how does the TetR repression strength read?
Answer: 0.229

Question: Which TetR repression strength does the source give for TCCCTTGAAGTGGACGAGA here?
Answer: 0.251

Question: TCCCGTGAAGTACGCGAGA was tested. Which TetR repression strength did it give?
Answer: 0.217

Question: How did the TetR repression strength turn out when TCCCATGTAGTTATTGAGA was run?
Answer: 0.196

Question: Which TetR repression strength does the source give for TCCCTAGGAGTGCTCGAGA here?
Answer: 0.395

Question: How did the TetR repression strength turn out when TCCCTCGTAGTGAAAGAGA was run?
Answer: 0.159

Question: For TCCCGTTTAGTTGACGAGA, which TetR repression strength is on record?
Answer: 0.355

Question: TCCCTGCTAGTCTGAGAGA was tested. Which TetR repression strength did it give?
Answer: 0.24

Question: For TCCCTATAAGTTTGAGAGA, which TetR repression strength is on record?
Answer: 0.415

Question: Which TetR repression strength does the source give for TCCCATCTAGTCTTAGAGA here?
Answer: 0.359

Question: TCCCGGAGAGTATAAGAGA was tested. Which TetR repression strength did it give?
Answer: 0.289

Question: How did the TetR repression strength turn out when TCCCACAAAGTAATTGAGA was run?
Answer: 0.271

Question: TCCCAGGCAGTTGGTGAGA was tested. Which TetR repression strength did it give?
Answer: 0.258

Question: TCCCCAATAGTGGCGGAGA was tested. Which TetR repression strength did it give?
Answer: 0.153

Question: Which TetR repression strength does the source give for TCCCCACTAGTGGTCGAGA here?
Answer: 0.233

Question: With TCCCTTGTAGTGCTGGAGA as the sequence, how does the TetR repression strength read?
Answer: 0.314

Question: With TCCCTTATAGTATCCGAGA as the sequence, how does the TetR repression strength read?
Answer: 0.358

Question: For TCCCTTTCAGTGCCCGAGA, which TetR repression strength is on record?
Answer: 0.307

Question: TCCCGAGCAGTCGGGGAGA was tested. Which TetR repression strength did it give?
Answer: 0.0869

Question: For TCCCGTAAAGTAGCCGAGA, which TetR repression strength is on record?
Answer: 0

Question: With TCCCTTTCAGTCCCCGAGA as the sequence, how does the TetR repression strength read?
Answer: 0.359

Question: How did the TetR repression strength turn out when TCCCCATGAGTGTTCGAGA was run?
Answer: 0.25

Question: How did the TetR repression strength turn out when TCCCGGGCAGTAGCGGAGA was run?
Answer: 0.243

Question: For TCCCAATGAGTGGCCGAGA, which TetR repression strength is on record?
Answer: 0.31

Question: With TCCCTATGAGTACGGGAGA as the sequence, how does the TetR repression strength read?
Answer: 0.485

Question: How did the TetR repression strength turn out when TCCCTCGAAGTACTGGAGA was run?
Answer: 0.203

Question: How did the TetR repression strength turn out when TCCCTGACAGTTACCGAGA was run?
Answer: 0.294

Question: Which TetR repression strength does the source give for TCCCGATGAGTGTGAGAGA here?
Answer: 0.341

Question: How did the TetR repression strength turn out when TCCCGAGGAGTGTGTGAGA was run?
Answer: 0.174

Question: For TCCCGAGGAGTAGTTGAGA, which TetR repression strength is on record?
Answer: 0.196

Question: For TCCCCAGGAGTGCAAGAGA, which TetR repression strength is on record?
Answer: 0.626

Question: TCCCGGTGAGTGCGAGAGA was tested. Which TetR repression strength did it give?
Answer: 0.189

Question: For TCCCGTTGAGTAGCGGAGA, which TetR repression strength is on record?
Answer: 0.29

Question: With TCCCGGACAGTTGATGAGA as the sequence, how does the TetR repression strength read?
Answer: 0.179

Question: With TCCCGATCAGTGTCCGAGA as the sequence, how does the TetR repression strength read?
Answer: 0.211

Question: With TCCCTGAAAGTGTCGGAGA as the sequence, how does the TetR repression strength read?
Answer: 0.066

Question: For TCCCGCGTAGTCCGCGAGA, which TetR repression strength is on record?
Answer: 0.172

Question: How did the TetR repression strength turn out when TCCCGAACAGTGGATGAGA was run?
Answer: 0.37

Question: How did the TetR repression strength turn out when TCCCGTGGAGTTCTTGAGA was run?
Answer: 0.37

Question: TCCCCCGCAGTGCGCGAGA was tested. Which TetR repression strength did it give?
Answer: 0.18

Question: For TCCCGCGGAGTGGGCGAGA, which TetR repression strength is on record?
Answer: 0.271

Question: TCCCGGCGAGTTTGGGAGA was tested. Which TetR repression strength did it give?
Answer: 0.108

Question: How did the TetR repression strength turn out when TCCCGATCAGTACTTGAGA was run?
Answer: 0.0384

Question: TCCCAGATAGTCAGAGAGA was tested. Which TetR repression strength did it give?
Answer: 0.248

Question: Which TetR repression strength does the source give for TCCCGGTTAGTGATGGAGA here?
Answer: 0.262

Question: How did the TetR repression strength turn out when TCCCGGGCAGTCAGGGAGA was run?
Answer: 0.193

Question: How did the TetR repression strength turn out when TCCCACTCAGTTAGGGAGA was run?
Answer: 0.268

Question: For TCCCGGTGAGTCAGCGAGA, which TetR repression strength is on record?
Answer: 0.305

Question: For TCCCCCGCAGTGAACGAGA, which TetR repression strength is on record?
Answer: 0.519

Question: How did the TetR repression strength turn out when TCCCTTCGAGTTGTTGAGA was run?
Answer: 0.159

Question: With TCCCCTAAAGTAAGTGAGA as the sequence, how does the TetR repression strength read?
Answer: 0.187

Question: TCCCCTTGAGTCGTTGAGA was tested. Which TetR repression strength did it give?
Answer: 0.312

Question: With TCCCGTCCAGTGGAAGAGA as the sequence, how does the TetR repression strength read?
Answer: 0.288

Question: Which TetR repression strength does the source give for TCCCGATGAGTTGGGGAGA here?
Answer: 0.13

Question: For TCCCTCTAAGTTAGTGAGA, which TetR repression strength is on record?
Answer: 0.241

Question: For TCCCTTTTAGTGCAGGAGA, which TetR repression strength is on record?
Answer: 0.444

Question: For TCCCAGAGAGTACGCGAGA, which TetR repression strength is on record?
Answer: 0.249

Question: For TCCCGATCAGTGTCTGAGA, which TetR repression strength is on record?
Answer: 0.429

Question: With TCCCAAAAAGTGACTGAGA as the sequence, how does the TetR repression strength read?
Answer: 0.475

Question: Which TetR repression strength does the source give for TCCCGGTGAGTGTGGGAGA here?
Answer: 0.166

Question: Which TetR repression strength does the source give for TCCCCAGAAGTGGGTGAGA here?
Answer: 0.123

Question: With TCCCGTACAGTCGACGAGA as the sequence, how does the TetR repression strength read?
Answer: 0.415

Question: TCCCTGAGAGTGTTAGAGA was tested. Which TetR repression strength did it give?
Answer: 0.198

Question: How did the TetR repression strength turn out when TCCCAGACAGTTGCCGAGA was run?
Answer: 0.613

Question: Which TetR repression strength does the source give for TCCCGGTCAGTAGCCGAGA here?
Answer: 0.2

Question: Which TetR repression strength does the source give for TCCCTGACAGTTCATGAGA here?
Answer: 0.013

Question: For TCCCAACTAGTGTGGGAGA, which TetR repression strength is on record?
Answer: 0.283

Question: How did the TetR repression strength turn out when TCCCCAATAGTTGTGGAGA was run?
Answer: 0.165

Question: How did the TetR repression strength turn out when TCCCGTCCAGTTTTTGAGA was run?
Answer: 0.261

Question: Which TetR repression strength does the source give for TCCCTGAGAGTCTGTGAGA here?
Answer: 0.0755

Question: With TCCCAAGTAGTACAGGAGA as the sequence, how does the TetR repression strength read?
Answer: 0.16

Question: With TCCCGGGCAGTGGATGAGA as the sequence, how does the TetR repression strength read?
Answer: 0.217

Question: TCCCTGGAAGTATAGGAGA was tested. Which TetR repression strength did it give?
Answer: 0.222

Question: TCCCACGTAGTCTCCGAGA was tested. Which TetR repression strength did it give?
Answer: 0.213

Question: For TCCCATAAAGTGGGTGAGA, which TetR repression strength is on record?
Answer: 0.2

Question: How did the TetR repression strength turn out when TCCCAGGCAGTGCTTGAGA was run?
Answer: 0.113

Question: How did the TetR repression strength turn out when TCCCCGTCAGTAGGCGAGA was run?
Answer: 0.243

Question: For TCCCAGGAAGTCAGCGAGA, which TetR repression strength is on record?
Answer: 0.381

Question: For TCCCGCATAGTCTCGGAGA, which TetR repression strength is on record?
Answer: 0.13

Question: Which TetR repression strength does the source give for TCCCCATGAGTCTCGGAGA here?
Answer: 0.139

Question: TCCCTGCAAGTAGCAGAGA was tested. Which TetR repression strength did it give?
Answer: 0.154

Question: Which TetR repression strength does the source give for TCCCGATTAGTGGGGGAGA here?
Answer: 0.147
